Counter-ions that a name gives are not always drawn. Some of the results follow. The data scatter; read single values as rough.
Assays:
Test in all cases: ALDHbr (CSC) cell proportion score relative to DMSO vehicle (ratio to DMSO); breast (SUM159) / gastric (MKN45) / pancreatic (PANC1) / colon cancer lines; ALDHbr cells have high ALDH activity and are rich in cancer stem cells (CSC); higher = more CSC (ALDHbr) cells remaining
Conditions in all cases: 10 µM; 72 h
[1] = test system: MKN45
[2] = test system: PANC1
[3] = test system: SUM159
[4] = test system: T84
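Note: High-content imaging of ALDEFLUOR-stained cells with Hoechst-labelled nuclei in 384-well plates, triplicate wells, scored as Z-score against 0.1% DMSO vehicle, negative meaning fewer ALDHbr cells.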

Row | SMILES | ALDHbr [1] | ALDHbr [2] | ALDHbr [3] | ALDHbr [4]
1 | COc1ccc(Cc2nccc3cc(OC)c(OC)cc23)cc1OC [Papaverine hydrochloride] | 1.2 | 0.932 | 1.65 | 0.801
2 | COc1ccc(CCN2CCC(Nc3nc4ccccc4n3Cc3ccc(F)cc3)CC2)cc1 [Astemizole] | 0.328 | 1.07 | 0 | 0.0323
3 | COc1ccc(C(CN(C)C)C2(O)CCCCC2)cc1 (configuration not stated) [Venlafaxine] | 1.09 | 0.862 | 1.38 | 0.912
4 | CC(C)c1c(CN(C)C(C)Cc2ccccc2)n(C)n(-c2ccccc2)c1=O (configuration not stated) [Famprofazone] | 0.778 | 0.875 | 0.787 | 0.858
5 | C[C@]12CC[C@H]3[C@@H](CCC4=CC(=O)CC[C@@H]43)[C@@H]1CC[C@@H]2O [Nandrolone] | 0.911 | 0.864 | 0.927 | 1.02
6 | C1CCc2nnnn2CC1 [Pentylenetetrazole] | 0.864 | 1.03 | 0.953 | 1.14
7 | c1ccc2c(c1)OCC(C1=NCCN1)O2 (configuration not stated) [Idazoxan hydrochloride] | 0.989 | 0.805 | 1.13 | 0.67
8 | CC1C=CC=CCCC=CC=CC=CC=CC(OC2OC(C)C(O)C(N)C2O)CC2OC(O)(CC(O)C(O)CCC(O)CC(O)CC(O)CC(=O)OC(C)C(C)C1O)CC(O)C2C(=O)O (configuration not stated) [Nystatine] | 1.08 | 0.856 | 0.997 | 1.12
9 | CCN(C)C(=O)Oc1cccc([C@H](C)N(C)C)c1 [Rivastigmine] | 1.2 | 0.886 | 1 | 0.976
10 | CN1[C@@H]2CC[C@H]1C[C@@H](OC(=O)C(CO)c1ccccc1)C2 (some centres not stated) [Atropine sulfate monohydrate] | 1.33 | 0.954 | 1.04 | 1.15
11 | CC(=O)O[C@H]1CC[C@@]2(C)C(=CC[C@@H]3[C@@H]2CC[C@]2(C)C(=O)CC[C@@H]32)C1 [Dehydroisoandosterone 3-acetate] | 0.885 | 0.907 | 1.12 | 1.11
12 | CN1CCN(C(=O)OC2c3nccnc3C(=O)N2c2ccc(Cl)cn2)CC1 (configuration not stated) [Zopiclone] | 0.956 | 0.908 | 1.19 | 0.873
13 | CCC1(c2cccc(O)c2)CCCCN(C)C1 (configuration not stated) [Meptazinol hydrochloride] | 1.11 | 0.956 | 0.902 | 0.949
14 | NCC1(CC(=O)O)CCCCC1 [Gabapentin] | 1.26 | 0.871 | 1.14 | 0.955
15 | CC[C@H](C)[C@H]1O[C@]2(C=C[C@@H]1C)C[C@@H]1C[C@@H](C/C=C(\C)[C@@H](O[C@H]3C[C@H](OC)[C@@H](O[C@H]4C[C@H](OC)[C@@H](O)[C@H](C)O4)[C@H](C)O3)[C@@H](C)/C=C/C=C3\CO[C@@H]4[C@H](O)C(C)=C[C@@H](C(=O)O1)[C@]34O)O2.CO[C@H]1C[C@H](O[C@H]2[C@H](C)O[C@@H](O[C@@H]3/C(C)=C/C[C@@H]4C[C@@H](C[C@]5(C=C[C@H](C)[C@@H](C(C)C)O5)O4)OC(=O)[C@@H]4C=C(C)[C@@H](O)[C@H]5OC/C(=C\C=C\[C@@H]3C)[C@]54O)C[C@@H]2OC)O[C@@H](C)[C@@H]1O [Avermectin B1] | 0.295 | 1.19 | 1.21 | 0.638
16 | COc1ccc(CCN)cc1OC [Homoveratrylamine] | 1.05 | 0.972 | 1.01 | 1.18
17 | CN(C)C(=O)Oc1cccc([N+](C)(C)C)c1 [Neostigmine bromide] | 1.09 | 0.98 | 1.08 | 0.933
18 | O=C(NCNC(=O)NC1C(=O)NC(=O)N1CO)NC1C(=O)NC(=O)N1CO (configuration not stated) [Imidurea] | 1.1 | 1 | 1.23 | 0.912
19 | CCN(CC)C(C)C(=O)c1ccccc1 (configuration not stated) [Amfepramone hydrochloride] | 0.942 | 0.906 | 1.01 | 0.921
20 | CC(C)C[C@H]1C(=O)N2CCC[C@H]2[C@]2(O)O[C@](NC(=O)[C@@H]3C=C4c5cccc6[nH]c(Br)c(c56)C[C@H]4N(C)C3)(C(C)C)C(=O)N12 [Bromocryptine mesylate] | 0.571 | 0.601 | 0.31 | 0.724
21 | CNC(C)(C)Cc1ccccc1 [Mephentermine hemisulfate] | 1.1 | 0.818 | 1.35 | 1.37
22 | OC(c1ccccc1)(c1ccccc1)C1CCNCC1 [Azacyclonol] | 1.13 | 0.882 | 0.773 | 1.03
23 | C=C1C[C@@H]2[C@H](CC[C@]3(C)C(=O)CC[C@@H]23)[C@@]2(C)C=CC(=O)C=C12 [Exemestane] | 0.649 | 0.712 | 0.615 | 0.524
